Values marked as one replicate rest on one cluster of the flow cell; about a third of the high ones do not repeat.
system: ATP; test: switch fluorescence ratio, 500 uM ATP over buffer (Cy3 cluster intensity, sum of 5 cycles each) (fold (ratio)); higher = stronger signal-on switching upon ATP binding; sequences stand for … in TCGTCGGCAGCGTCAGATGTGTATAAGAGACAGTTTTTTTTTTTTTTTTTTTTTTTTT…TC; conditions: aptamer strand: ATP DNA aptamer (quencher-CACCTGGGGGAGTATTGCGGAGGAAGG + anchor), 100 nM annealed; ATP concentration: 500 uM; one replicate
Procedure, shortened: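 Imaging in selection buffer was followed by imaging after 15 min with 500 uM ATP at 22 °C, for Cy3-labelled switching-strand clusters annealed to 100 nM quencher-labelled ATP aptamer on a modified Illumina MiSeq flow-cell. Five of these buffer/ATP cycles ran, separated by NaOH stripping and re-annealing. The fluorescence ratio per cluster is summed target-cycle over summed buffer-cycle Cy3 intensity, averaged per switch-domain sequence; clusters outside 100-1000 RFU were removed.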
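Also: ATP exposure 15 min at 22 °C before imaging.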

**Q.** With CGTGTATTAA as the sequence, how does the switch fluorescence ratio read?
**A.** 1.04

**Q.** Which switch fluorescence ratio does the source give for CCTTGTAGGC here?
**A.** 1.07

**Q.** GATGTAGCCT was tested. Which switch fluorescence ratio did it give?
**A.** 1.05

**Q.** With GTTATGTGAG as the sequence, how does the switch fluorescence ratio read?
**A.** 0.982

**Q.** How did the switch fluorescence ratio turn out when GTGTGGAGCC was run?
**A.** 1.01

**Q.** For AAGGGGAGAT, which switch fluorescence ratio is on record?
**A.** 1.03

**Q.** Which switch fluorescence ratio does the source give for TGAAAGCGAC here?
**A.** 1.91

**Q.** GTATAAAAAT was tested. Which switch fluorescence ratio did it give?
**A.** 0.957

**Q.** Which switch fluorescence ratio does the source give for AAATCGGCTG here?
**A.** 0.978

**Q.** Which switch fluorescence ratio does the source give for CCCCTGGAGA here?
**A.** 1.05

**Q.** CGGCTACCTT was tested. Which switch fluorescence ratio did it give?
**A.** 1.01

**Q.** With GTTAGGCACT as the sequence, how does the switch fluorescence ratio read?
**A.** 1

**Q.** Which switch fluorescence ratio does the source give for ATTAGCAAGT here?
**A.** 1.05

**Q.** For TCCACGTCAA, which switch fluorescence ratio is on record?
**A.** 3.5

**Q.** How did the switch fluorescence ratio turn out when GCTAATTAAA was run?
**A.** 1

**Q.** How did the switch fluorescence ratio turn out when GCTTCAGATT was run?
**A.** 0.97

**Q.** How did the switch fluorescence ratio turn out when TAATGCTTGT was run?
**A.** 0.978

**Q.** Which switch fluorescence ratio does the source give for GGGATAAAAG here?
**A.** 0.994

**Q.** Which switch fluorescence ratio does the source give for GGCTACAGTA here?
**A.** 1.11

**Q.** Which switch fluorescence ratio does the source give for GACTATTCG here?
**A.** 1.01

**Q.** TCTGTCTTGT was tested. Which switch fluorescence ratio did it give?
**A.** 1

**Q.** ATTCTGATCG was tested. Which switch fluorescence ratio did it give?
**A.** 1.03

**Q.** How did the switch fluorescence ratio turn out when TGAGTCTAAG was run?
**A.** 0.984

**Q.** For GACCTATGTG, which switch fluorescence ratio is on record?
**A.** 1.02

**Q.** For CGACAGGGCG, which switch fluorescence ratio is on record?
**A.** 0.917

**Q.** For TTCACAGAC, which switch fluorescence ratio is on record?
**A.** 1.53

**Q.** How did the switch fluorescence ratio turn out when GAGAAAGTTA was run?
**A.** 0.992

**Q.** With AATCTCCGTA as the sequence, how does the switch fluorescence ratio read?
**A.** 1.07

**Q.** Which switch fluorescence ratio does the source give for ATAGAGGG here?
**A.** 1.01

**Q.** How did the switch fluorescence ratio turn out when CCTGAGGATA was run?
**A.** 1.04

**Q.** Which switch fluorescence ratio does the source give for GTTCCTTGGT here?
**A.** 0.992

**Q.** For CTCTTCTAGT, which switch fluorescence ratio is on record?
**A.** 0.989

**Q.** With CTTTCTGTAA as the sequence, how does the switch fluorescence ratio read?
**A.** 1.06

**Q.** For TACAAAAGGC, which switch fluorescence ratio is on record?
**A.** 1

**Q.** Which switch fluorescence ratio does the source give for ATCGGCATAA here?
**A.** 1.18

**Q.** With AAATACCGTG as the sequence, how does the switch fluorescence ratio read?
**A.** 1

**Q.** For AGGATTACGT, which switch fluorescence ratio is on record?
**A.** 0.992

**Q.** With TAAGGGAAGT as the sequence, how does the switch fluorescence ratio read?
**A.** 1.03

**Q.** For ATGTCCGCGT, which switch fluorescence ratio is on record?
**A.** 1.15

**Q.** GGTGCGGTA was tested. Which switch fluorescence ratio did it give?
**A.** 0.989

**Q.** For GTATTTACGA, which switch fluorescence ratio is on record?
**A.** 0.993

**Q.** Which switch fluorescence ratio does the source give for GGCTGACAAG here?
**A.** 1.02

**Q.** For CGGCTATCGC, which switch fluorescence ratio is on record?
**A.** 1.04

**Q.** Which switch fluorescence ratio does the source give for TACACATACA here?
**A.** 1.34

**Q.** For GGTGGATTCT, which switch fluorescence ratio is on record?
**A.** 0.973

**Q.** For GTACTGATAT, which switch fluorescence ratio is on record?
**A.** 1.02

**Q.** With GAAGCCAGTG as the sequence, how does the switch fluorescence ratio read?
**A.** 1.08

**Q.** TGGAGATAG was tested. Which switch fluorescence ratio did it give?
**A.** 1.25

**Q.** GCAAGGCGTT was tested. Which switch fluorescence ratio did it give?
**A.** 1.02

**Q.** GTTATAGGT was tested. Which switch fluorescence ratio did it give?
**A.** 0.967

**Q.** With CTCTTATAGA as the sequence, how does the switch fluorescence ratio read?
**A.** 1

**Q.** Which switch fluorescence ratio does the source give for TGGAGAAGTT here?
**A.** 1.23

**Q.** For GGTGGCACGG, which switch fluorescence ratio is on record?
**A.** 0.998

**Q.** With TTACCCGTAT as the sequence, how does the switch fluorescence ratio read?
**A.** 0.992

**Q.** Which switch fluorescence ratio does the source give for AGGCAAGTC here?
**A.** 1.06

**Q.** With GCAACCGGGA as the sequence, how does the switch fluorescence ratio read?
**A.** 1.01

**Q.** TGTCCACTTA was tested. Which switch fluorescence ratio did it give?
**A.** 1.01

**Q.** With AGTACATCAA as the sequence, how does the switch fluorescence ratio read?
**A.** 1.06

**Q.** TACCTTTTTA was tested. Which switch fluorescence ratio did it give?
**A.** 1.05

**Q.** Which switch fluorescence ratio does the source give for AAGGGATGGG here?
**A.** 0.988

**Q.** With ATATTCGCTT as the sequence, how does the switch fluorescence ratio read?
**A.** 1.03

**Q.** TTGTTGGAAC was tested. Which switch fluorescence ratio did it give?
**A.** 1.27

**Q.** With CCCTGACGAT as the sequence, how does the switch fluorescence ratio read?
**A.** 2.17

**Q.** For GTATAAGAGT, which switch fluorescence ratio is on record?
**A.** 0.986

**Q.** Which switch fluorescence ratio does the source give for TGACGGTATG here?
**A.** 0.983

**Q.** GGCCGGCTTG was tested. Which switch fluorescence ratio did it give?
**A.** 1.03

**Q.** CATAGATGCT was tested. Which switch fluorescence ratio did it give?
**A.** 1

**Q.** For CTCAAGGAAT, which switch fluorescence ratio is on record?
**A.** 1.11

**Q.** With TGGAGACCTT as the sequence, how does the switch fluorescence ratio read?
**A.** 1.21

**Q.** How did the switch fluorescence ratio turn out when TACCGGCCCG was run?
**A.** 1.09

**Q.** TAGGTGAAAG was tested. Which switch fluorescence ratio did it give?
**A.** 0.977

**Q.** Which switch fluorescence ratio does the source give for TACGGTACTT here?
**A.** 1.54

**Q.** AGCTTGATTG was tested. Which switch fluorescence ratio did it give?
**A.** 0.964

**Q.** For AAGTAGCCGC, which switch fluorescence ratio is on record?
**A.** 1.11

**Q.** How did the switch fluorescence ratio turn out when TGCTTTTTGA was run?
**A.** 1.02

**Q.** With AAATTTAGAG as the sequence, how does the switch fluorescence ratio read?
**A.** 1.01

**Q.** Which switch fluorescence ratio does the source give for AAGGGGTCG here?
**A.** 1.03

**Q.** With CTCCGATCGG as the sequence, how does the switch fluorescence ratio read?
**A.** 1.05

**Q.** GCAGCCATTG was tested. Which switch fluorescence ratio did it give?
**A.** 1.01

**Q.** How did the switch fluorescence ratio turn out when CTGTGTGCGC was run?
**A.** 1.01

**Q.** How did the switch fluorescence ratio turn out when TTACGTGATT was run?
**A.** 1

**Q.** How did the switch fluorescence ratio turn out when CCAAGTCACA was run?
**A.** 1.1

**Q.** With TAATGCTTGA as the sequence, how does the switch fluorescence ratio read?
**A.** 1.02

**Q.** How did the switch fluorescence ratio turn out when CCAAGAATTC was run?
**A.** 1.03

**Q.** For CTGCGGGATC, which switch fluorescence ratio is on record?
**A.** 1.25

Source: the supplement of paper PMC10126150
